Results from PubChem BioAssay AID488969 (Vanderbilt High Throughput Screening Facility, 2010).
Over roughly 110,000 compounds, “z-score” has its median near -0.1; the highest 2% begin near 2. The list shows a part of the results.

The compounds below were run against Metabotropic glutamate receptor 8 (Rattus norvegicus) (UniProt P70579) (assay: mGluR8 Gi/Go-coupled signaling modulation – cell-based, rat, thallium flux, HTS, primary screen (AID 488969)). Conditions: HEK293 rat mGluR8, GIRK (G protein-gated inwardly rectifying potassium channel) thallium flux, FluoZin2; at 10 µM; stronger effect = higher value; submaximal glutamate (EC20) added with thallium.
Chain of UniProt P70579 (P70579 whole entry, looked up): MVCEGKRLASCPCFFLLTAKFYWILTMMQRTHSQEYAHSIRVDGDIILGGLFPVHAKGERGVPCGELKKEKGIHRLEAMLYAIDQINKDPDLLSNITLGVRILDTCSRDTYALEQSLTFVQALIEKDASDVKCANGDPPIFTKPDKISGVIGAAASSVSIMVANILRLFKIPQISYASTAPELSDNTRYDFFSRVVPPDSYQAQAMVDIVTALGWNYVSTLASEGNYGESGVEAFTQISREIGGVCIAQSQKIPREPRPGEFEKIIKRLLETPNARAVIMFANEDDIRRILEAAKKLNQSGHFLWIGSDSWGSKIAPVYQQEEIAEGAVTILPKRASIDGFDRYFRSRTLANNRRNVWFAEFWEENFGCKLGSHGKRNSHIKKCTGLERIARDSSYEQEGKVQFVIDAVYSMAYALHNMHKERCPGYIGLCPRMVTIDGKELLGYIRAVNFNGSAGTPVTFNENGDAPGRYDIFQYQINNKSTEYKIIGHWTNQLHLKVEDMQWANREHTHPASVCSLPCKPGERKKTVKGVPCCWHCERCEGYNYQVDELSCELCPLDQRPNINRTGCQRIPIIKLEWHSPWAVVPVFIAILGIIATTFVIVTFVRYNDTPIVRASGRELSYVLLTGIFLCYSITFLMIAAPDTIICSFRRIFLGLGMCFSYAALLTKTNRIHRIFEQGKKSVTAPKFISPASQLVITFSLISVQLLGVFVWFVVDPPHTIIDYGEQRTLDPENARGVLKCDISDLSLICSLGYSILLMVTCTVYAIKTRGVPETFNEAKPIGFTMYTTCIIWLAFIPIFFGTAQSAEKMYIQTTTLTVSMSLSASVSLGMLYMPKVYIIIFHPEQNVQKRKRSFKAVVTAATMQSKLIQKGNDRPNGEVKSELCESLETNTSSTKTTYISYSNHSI

SMILES | z-score
Cc1cc(C(=O)NCCCn2ccnc2)cs1 | 0.256
Cc1cccc(NC(=O)CSc2nnnn2C)n1 | 0.2
CC(=O)Nc1ccc(OCC(O)CN2CCN(S(=O)(=O)c3ccc(NC(C)=O)cc3)CC2)cc1 (centres undefined) | 0.116
COc1ccc(C2C(C#N)=C(N)Oc3cc(C)[nH]c(=O)c32)c(OC)c1OC (centres undefined) | -0.0016
COc1ccc(/C=c2\s/c(=C(/C#N)C(=O)NCc3ccco3)n(-c3ccccc3)c2=O)cc1 | 0.186
COc1ccc(C(C)=O)c(Oc2nc(CN3CCOCC3)nc3scc(-c4cccs4)c23)c1 | -0.61
Nc1c(C(=O)NCCc2ccc(Cl)cc2)sc2ccc(S(=O)(=O)N3CCCCC3)cc12 | 0.087
COc1cccc(C(=O)/C=C/Nc2cccc(O)c2)c1 | -0.665
CC(C)C(NC(=O)OCc1ccccc1)C(=O)O (centres undefined) | -0.112
Cc1ccccc1-c1nsc(SCC(=O)c2ccc(Cl)cc2)n1 | 0.311
CCCCOC(=O)c1cccc(NC(=O)CC)c1 | -0.14
CN1CCN(C(=O)c2ccc3c(c2)NC(=O)C(N2CCOCC2)S3)CC1 (centres undefined) | -0.0177
Cc1sc2ncnc(N/N=C/c3ccc(O)cc3)c2c1C | -0.33
CCn1c(-c2ccccc2Cl)nn(CC(=O)Nc2ccccc2C)c1=S | -0.186
O=C(CCSc1ccccc1)Nc1ccc(OCc2ccccc2)cc1 | -0.315
CCOc1ccc(C(=O)Nc2cc(-c3nc4ccccc4[nH]3)ccc2C)cc1[N+](=O)[O-] | -0.431
O=S(=O)(c1cccc(-n2cnnn2)c1)N1CCOCC1 | 0.693
COC(=O)c1c(C)c(C)nc(N)c1C#N | 1.3
O=C(CNS(=O)(=O)c1c(Cl)cccc1Cl)OCc1csc(-c2ccccc2)n1 | -0.71
CCn1c(NCc2ccccc2NS(=O)(=O)c2ccc(C)cc2)nc2ccccc21 | -0.0308
CC(C)CC(O)(CC(C)C)C(=O)NNc1ccccc1 | -0.454
Cc1cccc(NC(=O)CCOc2ccccc2)c1 | 0.192
CCCC(=O)Nc1cccc(-c2nc3ccccc3o2)c1 | -0.457

SMILES | z-score
O=c1[nH]c(/C=C/c2ccccc2[N+](=O)[O-])nc2ccccc12 | -0.122
COC(=O)C1=C(C)N(c2cccc(C(C)=O)c2)C(=O)C1 | -0.0346
O=C(NCC1CCCO1)c1csc2c1CCCCC2 (centres undefined) | 0.253
CC1(C)Oc2ccc(C(=O)N3CCc4ccccc43)cc2N(CC(=O)N2CCCC2)C1=O | -0.384
Cc1cc(C(=O)NCCCc2ccccc2)no1 | -0.145
N=C1/C(=C/c2cccn2Cc2ccc(Cl)cc2)C(=O)N=C2SC=CN12 | 0.0351
COc1ccc2[nH]c(=O)c(CN(Cc3nnnn3Cc3ccc(F)cc3)CC3CCCO3)cc2c1 (centres undefined) | -0.725
CC(/C=N\NC(=O)c1cccnc1)c1ccccc1 (centres undefined) | -0.201
Cc1ccc(-c2nc3ccccc3s2)cc1NC(=S)NC(=O)/C=C/c1ccco1 | 0.194
COc1ccc(OC)c(NC(=O)C2COc3ccccc3O2)c1 (centres undefined) | 0.757
O=C(Nc1cc([N+](=O)[O-])ccc1F)c1cccs1 | -0.0753
O=C(Nc1ccccc1N1CCCCC1)c1ccc(N2C(=O)c3ccccc3C2=O)cc1 | 0.165
CC(=O)Nc1ccc(S(=O)(=O)NCC(=O)OCc2ccccc2)cc1 | -0.253
CCN1/C(=C2\SC(=S)N(Cc3ccccc3)C2=O)Sc2ccccc21 | -0.0706
COc1ccc(S(=O)(=O)Nc2ccccc2C(=O)NCc2ccco2)cc1 | -0.614
CCOC(=O)N1CCN(C(=O)c2ccc(N(Cc3ccc(C)cc3)S(C)(=O)=O)cc2)CC1 | 0.151
CCCn1nnc(NC(=O)c2ccc(-c3ccccc3)cc2)n1 | -0.862
Oc1ccccc1CNc1cnc2ccccc2c1 | 0.084
COC(=O)c1cccc(NC(=O)CN(c2ccc3c(c2)OCO3)S(C)(=O)=O)c1C | -0.13
Cc1ccc(N(C)C(=O)N2CCN(S(=O)(=O)c3ccc(C)c(C)c3)CC2)cc1 | 0.307
CN1C=CC=C/C1=C(\C#N)c1nc2ccccc2[nH]1 | 0.292
CC(C)C(NS(=O)(=O)c1cccs1)C(=O)Nc1nc(C(C)(C)C)cs1 (centres undefined) | -0.259
Cc1nnc(Oc2ccccc2)c2ccccc12 | 0.0484

SMILES | z-score
Cc1c(C(=O)N2CCC(C)CC2)oc2ccc(S(=O)(=O)N3CCC4(CC3)OCCO4)cc12 | -0.178
COC(=O)c1cccc(NC(=O)CSc2nnc(COc3ccc(C#N)cc3)n2-c2ccccc2)c1 | -0.426
c1cncc(-c2nnc(SCc3nc4ccccc4[nH]3)o2)c1 | 0.802
CCS(=O)(=O)c1ccc2oc(Nc3cc(C)cc(C)c3)nc2c1 | -0.316
COc1ccccc1NC(=O)C(C)N1CCN(C/C=C/c2ccccc2)CC1 (centres undefined) | 0.673
O=C(O)CC(c1cccc2ccccc12)n1cccc1 (centres undefined) | -0.0602
COc1ccc(S(=O)(=O)N(C)CC(=O)NC2CC2)cc1 | -0.0627
Cc1ccc(N=C2NC(=O)C(CC(=O)O)S2)cc1 (centres undefined) | -0.0604
COC(=O)c1ccccc1NC(=O)CS(=O)(=O)Cc1nc(-c2ccc(C)cc2)oc1C | 0.0108
Cc1ccc(/C=C/C(=O)NC(C)c2ccccc2)cc1 (centres undefined) | -0.0101
COC(=O)c1c(NC(=O)C(C)C)sc2c1C(C(=O)OC)CC2 (centres undefined) | 0.214
CCC(C)(C(=O)Nc1ccc2c(c1)OCCO2)N(C(C)=O)c1ccc(C(N)=O)cc1 (centres undefined) | -0.102
Cc1cc(C)nc(/N=C2\NC(=O)CC(C(=O)O)N2c2ccc(Oc3ccccc3)cc2)n1 (centres undefined) | -0.468
Cc1ccc(S(=O)(=O)N2CCCCC2C(=O)N2CCN(c3ccccc3F)CC2)cc1 (centres undefined) | -0.123
Cc1ccc(NC(=O)CCC(=O)NNC(=O)Cc2ccccc2)cc1C | -0.223
CCOC(=O)C1CCCN(c2c(N3CCC(N4CCCCC4)CC3)c(=O)c2=O)C1 (centres undefined) | -0.283
Cc1cc(-c2n[nH]c(=S)n2/N=C/c2ccc(Cl)c([N+](=O)[O-])c2)n[nH]1 | -0.643
COc1ccc(C2NCCC3(O)CCCCC23)c(OC)c1OC (centres undefined) | -0.178
CCN1CCCC1CNC(=O)C1c2cc(OC)c(OC)cc2C(=O)N(C)C1c1cccnc1 (centres undefined) | 0.289
Cc1nc2ccc(S(=O)(=O)NCC(=O)N3CCC(N4CCCCC4)CC3)cc2s1 | -0.313
Cc1ccc(Nc2nc(N3CCN(C)CC3)nc(N)c2[N+](=O)[O-])cc1C | -0.41
COc1ccc(C2=NO[C@@H]3C(=O)N(Cc4ccccc4)C(=O)[C@H]23)cc1OC | -0.0568
CCOC(=O)c1nnn(-c2nonc2N)c1-c1cccs1 | 0.422
